{
  "source": "PubChem BioAssay AID624417",
  "about": "(National Center for Advancing Translational Sciences (NCATS), 2012)",
  "note": "Hit rate of the full screen: of about 410,000 compounds, about 6,400 (1.6%) were called active. The shares of active, inactive and inconclusive entries below differ from those in the screen. Calls follow the shape of the dose curve; as a rule, active = well fitted inhibition curve with a large enough effect; inconclusive = small, poorly fitted or top-dose-only effect; inactive = no such curve, though single readings can be large or run the other way. No potency is given beside an inconclusive call; the fits are too rough. % is scaled to controls: 0 for no effect and ±100 for the full control effect; potency is read from the fitted curve at half-maximal effect; tags tell the direction and shape of the fitted curve.",
  "data": [
    {"biological_target": "Glucagon-like peptide 1 receptor (Homo sapiens) (UniProt P43220)", "sequence (P43220 whole entry, looked up)": "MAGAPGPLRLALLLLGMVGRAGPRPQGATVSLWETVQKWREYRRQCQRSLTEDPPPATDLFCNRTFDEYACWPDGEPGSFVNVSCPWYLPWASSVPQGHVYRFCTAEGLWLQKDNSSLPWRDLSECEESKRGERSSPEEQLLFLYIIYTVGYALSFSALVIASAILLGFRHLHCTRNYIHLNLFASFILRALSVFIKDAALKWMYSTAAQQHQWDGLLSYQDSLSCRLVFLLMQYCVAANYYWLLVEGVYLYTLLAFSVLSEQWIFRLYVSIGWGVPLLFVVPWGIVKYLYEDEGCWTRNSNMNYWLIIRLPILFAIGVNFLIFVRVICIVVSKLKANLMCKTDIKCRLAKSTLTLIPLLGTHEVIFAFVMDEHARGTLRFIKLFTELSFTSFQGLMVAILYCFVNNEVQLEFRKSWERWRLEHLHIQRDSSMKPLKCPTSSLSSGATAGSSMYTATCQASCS", "test": "qHTS of GLP-1 Receptor Inverse Agonists (Inhibition Mode); also: nearly all actives have a fitted effect of over 55% in size", "conditions": "HEK293 GLP-1R CRE-luciferase, luminescence, 24 h, GLP-1R form is constitutively active; activity change, negative = inhibition: at 38.3 µM (top of the series) unless noted", "summary_of_the_method": "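Stable HEK293 clone (constitutively active GLP-1R + cAMP-response luciferase); 200 cells/uL plated, 12 h pre-culture, compound 24 hr, 37 deg C/5% CO2; detection reagent 12 min RT; luminescence.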", "values": [
      {"smiles": "CC(OC(=O)c1cccc(S(=O)(=O)N2CCCCC2)c1)C(=O)NCC1CCCCC1", "note": "(centres undefined)", "Potency": "inconclusive [inhibitor, partial curve, poor fit]"},
      {"smiles": "CCCC(=O)Nc1nc(-c2ccccc2)c(CC)s1", "Potency": "inconclusive [inhibitor, single point]"},
      {"smiles": "CCC1CCc2c(sc(NC(=O)C3c4ccccc4Oc4ccccc43)c2C(=O)OC)C1", "note": "(centres undefined)", "Potency": "inconclusive [inhibitor, partial curve, poor fit]"},
      {"smiles": "COc1cccc(C(=O)C2CCCN(Cc3ccc(OC)c(Cn4cncn4)c3)C2)c1", "note": "(centres undefined)", "Potency": "inconclusive [inhibitor, single point]"},
      {"smiles": "Cc1ccc(NC(=O)CN(C)C(=O)COc2ccc(Br)cc2)cc1", "Potency": "inconclusive [inhibitor, single point]"},
      {"smiles": "COc1ccccc1CNS(=O)(=O)c1cc(-c2cc(C)no2)ccc1C(C)C", "Potency": "inconclusive [inhibitor, single point]"},
      {"smiles": "CC(C)c1ccc2oc(-c3ccc(Cl)c(NC(=O)Cc4ccccc4)c3)nc2c1", "Potency": "inconclusive [inhibitor, partial curve, poor fit]"},
      {"smiles": "CCC1(c2ccc(F)cc2)NC(=O)N(CC(=O)NCC(=O)Nc2cccc(C)c2C)C1=O", "note": "(centres undefined)", "Potency": "inconclusive [inhibitor, partial curve, poor fit]"},
      {"smiles": "CN1/C(=C\\C(=O)CN2C(=O)NC3(CCCCCC3)C2=O)C(C)(C)c2ccccc21", "Potency": "inconclusive [inhibitor, single point]"},
      {"smiles": "CCOC(=O)N1CCC(NC(=O)c2ccc3c(c2)N(Cc2ccc(Cl)cc2)C(=O)c2ccccc2S3(=O)=O)CC1", "Potency": "inconclusive [inhibitor, single point]"},
      {"smiles": "O=C(NCc1ccccc1)Nc1cccn(Cc2ccccc2F)c1=O", "Potency": "inconclusive [inhibitor, single point]"},
      {"smiles": "CSc1ccccc1NC(=O)CN1CCCCC1C", "note": "(centres undefined)", "Potency": "inconclusive [inhibitor, single point]"},
      {"smiles": "CC(=O)c1ccc(NC(=O)c2noc3c2CCCCC3)cc1", "Potency": "inconclusive [inhibitor, single point]"},
      {"smiles": "CCOC(=O)c1c(S(=O)(=O)N2CCN(c3cccc(C(F)(F)F)c3)CC2)c(C)n(C)c1C", "activity change, negative = inhibition": "inactive: 2.2%"},
      {"smiles": "COc1ccc(OC)c(CCNC(=O)c2nn(C)c3c2CSc2ccccc2-3)c1", "Potency": "inconclusive [inhibitor, single point]"},
      {"smiles": "COC(=O)c1ccccc1NC(=O)N1CCc2ccc(NC(=O)c3ccccn3)cc2C1", "Potency": "inconclusive [inhibitor, single point]"},
      {"smiles": "C=CCNc1nc(-c2ccc(OC)cc2OC)cs1", "Potency": "inconclusive [inhibitor, single point]"},
      {"smiles": "Cc1ccc(NC(=O)c2ccc(N(Cc3ccccc3)S(C)(=O)=O)cc2)cc1", "Potency": "inconclusive [inhibitor, single point]"},
      {"smiles": "Fc1ccc(C(CCNCc2cccs2)c2ccco2)cc1", "note": "(centres undefined)", "Potency": "inconclusive [inhibitor, partial curve, poor fit]"},
      {"smiles": "COC/C=C/C1=CC2=CC(=O)C(C)(OC(=O)C3CCCC3)C(=O)C2=CO1", "note": "(centres undefined)", "activity change, negative = inhibition": "inactive: 15.3%"},
      {"smiles": "CCCC(C)C(=O)Nc1nnc(CCc2ccccc2)s1", "note": "(centres undefined)", "Potency": "inconclusive [inhibitor, partial curve, poor fit]"},
      {"smiles": "COc1ccc(C)cc1NC(=O)CNC(c1ccccc1)c1ccc(C)cc1", "note": "(centres undefined)", "Potency": "inconclusive [inhibitor, partial curve, poor fit]"},
      {"smiles": "COc1ccc(-c2nc3ccccc3s2)cc1", "Potency": "inconclusive [inhibitor, single point]"},
      {"smiles": "CN(C)CCN(C)c1cc2c(c3c1ccn3C)C1CCC2O1", "note": "(centres undefined)", "activity change, negative = inhibition": "inactive: 3.95%"},
      {"smiles": "O=C(N/N=C/c1ccc(OC(=O)c2ccccc2Cl)cc1)c1cc(O)cc(O)c1", "Potency": "inconclusive [inhibitor, partial curve, poor fit]"},
      {"smiles": "Cc1nc2ccccc2nc1Nc1cccc(Cl)c1", "Potency": "inconclusive [inhibitor, single point]"},
      {"smiles": "O=C(NCC1CC1)C1Cc2c(-c3ccc4c(c3)OCO4)ccnc2O1", "note": "(centres undefined)", "Potency": "inconclusive [inhibitor, partial curve, poor fit]"},
      {"smiles": "CSc1nc(-c2cccs2)c(C#N)c(=O)[nH]1", "activity change, negative = inhibition": "inactive: 1.23%"},
      {"smiles": "O=C(CN1CCN(c2ccc(F)cc2)CC1)Nc1ccccc1Br", "Potency": "inconclusive [inhibitor, partial curve, poor fit]"},
      {"smiles": "Cc1ccc(C(=O)C2CCN(CC(=O)Nc3nc(C)cs3)CC2)cc1", "Potency": "inconclusive [inhibitor, partial curve, poor fit]"},
      {"smiles": "Cn1cc(/C=C(\\C#N)C(=O)Nc2ncc(Cc3ccc(Cl)cc3)s2)c2ccccc21", "activity change, negative = inhibition": "inactive: 9.9%"},
      {"smiles": "COc1ccc(CNC(=O)C(C)N(C)Cc2cccc(F)c2)cc1", "note": "(centres undefined)", "Potency": "inconclusive [inhibitor, single point]"},
      {"smiles": "CC(C)=CCc1c(O)c(CC=C(C)C)c2c(c1O)C(=O)CC(c1ccc(O)cc1)O2", "note": "(centres undefined)", "Potency": "inconclusive [inhibitor, partial curve, poor fit]"},
      {"smiles": "COCCCNc1ncnc2sc3c(c12)CCC(C)C3", "note": "(centres undefined)", "Potency": "inconclusive [inhibitor, single point]"},
      {"smiles": "CCN(c1ccc(OC)cc1)S(=O)(=O)c1nnc(NC(=O)c2ccccc2C)s1", "Potency": "inconclusive [inhibitor, partial curve]"},
      {"smiles": "COc1ccccc1Nc1c2c(nc3ccc(NC(=O)c4cccc(OC)c4OC)cc13)CCCC2", "Potency": "inconclusive [inhibitor, partial curve, poor fit]"},
      {"smiles": "O=C(Nc1cccc(C(=O)N2CCN(c3ccccc3F)CC2)c1)c1nsc2ccccc12", "Potency": "inconclusive [inhibitor, single point]"},
      {"smiles": "CC(C)c1ccc(NC(=O)C2(C)Cc3c(-c4cccc(C(F)(F)F)c4)ccnc3O2)cc1", "note": "(centres undefined)", "Potency": "inconclusive [inhibitor, partial curve, poor fit]"},
      {"smiles": "O=C(O)COn1c(-c2ccc(Cl)cc2)nc2ccc(Cl)cc21", "activity change, negative = inhibition": "inactive: 17.1%"},
      {"smiles": "O=C(Nc1ccc(C(F)(F)F)cc1)C1CCCN(S(=O)(=O)c2cccc3cccnc23)C1", "note": "(centres undefined)", "Potency": "inconclusive [inhibitor, full curve]"},
      {"smiles": "CCCSc1nc(N)c(C#N)c(-c2ccc(C)cc2)c1C#N", "Potency": "inconclusive [inhibitor, partial curve]"},
      {"smiles": "CCN(Cc1cc(=O)oc2cc(C)ccc12)c1ccccc1", "Potency": "active: 10 µM"},
      {"smiles": "O=c1c2cc(NC(=S)N3CCCC3)ccc2nc2n1CCCCC2", "activity change, negative = inhibition": "inactive: -2.55%"},
      {"smiles": "Cc1cc(C)cc(-n2nnc(-c3nsc(NC(=O)c4ccccc4Cl)n3)c2C)c1", "Potency": "inconclusive [inhibitor, partial curve, poor fit]"},
      {"smiles": "COc1ccc(C(CNC(=O)c2ccc(S(=O)(=O)Nc3ccccc3F)cc2)N(C)C)cc1", "note": "(centres undefined)", "activity change, negative = inhibition": "inactive: -1.55%"},
      {"smiles": "CCOc1ccc(-c2ccc(SCC)nn2)cc1", "Potency": "inconclusive [inhibitor, single point]"},
      {"smiles": "COC(=O)c1ccc2c(=O)n(CCCCCC(=O)N3CCN(c4cc(Cl)ccc4C)CC3)c(=O)[nH]c2c1", "activity change, negative = inhibition": "inactive: 2.87%"},
      {"smiles": "C=CCN1C(c2ccc(Br)cc2)=CS/C1=C(\\C#N)c1nnc(N2CCOCC2)n1-c1ccccc1", "Potency": "active: 7.08 µM"},
      {"smiles": "O=C(Nc1nccs1)c1cc(Cl)nc2ccccc12", "activity change, negative = inhibition": "inactive: -29%"},
      {"smiles": "COc1cccc(CNC(=O)c2ccc(-c3nc(CS(=O)(=O)c4ccccc4)c(C)o3)cc2)c1", "Potency": "inconclusive [inhibitor, single point]"},
      {"smiles": "CC(C)(C)C1CCc2c(sc(NC(=O)CCC(=O)O)c2C(=O)Nc2ccccc2C(F)(F)F)C1", "note": "(centres undefined)", "Potency": "inconclusive [inhibitor, single point]"},
      {"smiles": "COc1cccc(CNCCc2c[nH]c3ccccc23)c1OCc1ccccc1", "Potency": "inconclusive [inhibitor, partial curve, poor fit]"},
      {"smiles": "CCc1cc(C(=O)N/N=C/c2ccc(OC)cc2)c2ccccc2n1", "Potency": "inconclusive [inhibitor, full curve, poor fit]"},
      {"smiles": "Cc1ccc(-c2nnc(Sc3nc4ccccc4o3)c3ccccc23)cc1", "activity change, negative = inhibition": "inactive: -19.8%"},
      {"smiles": "COc1ccc(-n2cnnc2SCC(=O)Nc2cc(C(C)(C)C)nn2-c2ccccc2)cc1", "activity change, negative = inhibition": "inactive: -20.8%"},
      {"smiles": "CCOC(=O)c1cccc(NC(=O)N2CC(CC)Sc3ccccc32)c1", "note": "(centres undefined)", "Potency": "inconclusive [inhibitor, single point]"},
      {"smiles": "CC(C)c1ccc(NC(=O)Cn2cccc2C2=NC(c3ccccc3)CO2)cc1", "note": "(centres undefined)", "Potency": "inconclusive [inhibitor, partial curve, poor fit]"},
      {"smiles": "CC(NC(=O)CNC(=O)c1cccs1)c1cccc(C(F)(F)F)c1", "note": "(centres undefined)", "Potency": "inconclusive [inhibitor, single point]"},
      {"smiles": "O=C(COC(=O)CC1SC(N2CCCC2)=NC1=O)Nc1ccc(Br)cc1", "note": "(centres undefined)", "activity change, negative = inhibition": "inactive: 21.5%"},
      {"smiles": "CN(C(=O)c1cc2ccccc2cc1O)C1CCCCC1", "Potency": "inconclusive [inhibitor, single point]"},
      {"smiles": "COc1ccc(Cc2nnc(Nc3ccc(C)cc3C)[nH]c2=O)cc1", "Potency": "inconclusive [inhibitor, partial curve, poor fit]"},
      {"smiles": "Cc1ccccc1C(=O)Nc1ccc2nc(Nc3cccc(C(F)(F)F)c3)cc(C)c2c1", "Potency": "inconclusive [inhibitor, full curve, poor fit]"},
      {"smiles": "CCc1nc2c(OCC3CCCCC3)cccn2c1N(C)C(=O)c1ccc(C)cc1", "Potency": "inconclusive [inhibitor, partial curve, poor fit]"},
      {"smiles": "FC(F)(F)c1cccc(N2CCN(Cc3nnc(-c4ccc5c(c4)OCO5)o3)CC2)c1", "Potency": "inconclusive [inhibitor, single point]"}
    ]}
  ]
}
